The labels stand for the following.
B1: Q9UKT9 (peptide)
chain: FACSVCGHMFTQKGNLLRHIKL
B2: Q9UKT9 (peptide)
chain: FECPICGHAFTQKGNLLRHIKL
B3: Q9UKT9 (peptide)
chain: FCCSVCGHHFTQKGNLLRHIKL
B4: Q9UKT9 (peptide)
chain: FECDVCGAGFTQKGNLLRHIKL
B5: Q9UKT9 (peptide)
chain: FACEVCGAKFTQKGNLLRHIKL
B6: Q9UKT9 (peptide)
chain: LQCEICGFECTQKGNLLRHIKL
B7: Q9UKT9 (peptide)
chain: FDCEICGAMFTQKGNLLRHIKL
B8: Q9UKT9 (peptide)
chain: LQCPICGFKCTQKGNLLRHIKL
B9: Q9UKT9 (peptide)
chain: LQCNQCGFECTQKGNLLRHIKL
B10: Q9UKT9 (peptide)
chain: LQCEICGFGCTQKGNLLRHIKL
B11: Q9UKT9 (peptide)
chain: FHCPICGRLFTQKGNLLRHIKL
B12: Q9UKT9 (peptide)
chain: FWCNQCGRFFTQKGNLLRHIKL
B13: Q9UKT9 (peptide)
chain: FTCPICGHYFTQKGNLLRHIKL
B14: Q9UKT9 (peptide)
chain: FCCNICGAPFTQKGNLLRHIKL
B15: Q9UKT9 (peptide)
chain: FVCNICGAPFTQKGNLLRHIKL
B16: Q9UKT9 (peptide)
chain: LWCNQCGFNCTQKGNLLRHIKL
B17: Q9UKT9 (peptide)
chain: FFCDICGAGFTQKGNLLRHIKL
B18: Q9UKT9 (peptide)
chain: FRCDVCGAPFTQKGNLLRHIKL
B19: Q9UKT9 (peptide)
chain: FMCNICGAGFTQKGNLLRHIKL
B20: Q9UKT9 (peptide)
chain: FNCEICGAVFTQKGNLLRHIKL
B21: Q9UKT9 (peptide)
chain: LQCPICGFYCTQKGNLLRHIKL
B22: Q9UKT9 (peptide)
chain: FECNICGAYFTQKGNLLRHIKL
B23: Q9UKT9 (peptide)
chain: FCCNQCGRCFTQKGNLLRHIKL
B24: Q9UKT9 (peptide)
chain: LICPICGFHCTQKGNLLRHIKL
B25: Q9UKT9 (peptide)
chain: FKCEICGAMFTQKGNLLRHIKL
B26: Q9UKT9 (peptide)
chain: LQCNQCGFSCTQKGNLLRHIKL
B27: Q9UKT9 (peptide)
chain: FICPQCGAGFTQKGNLLRHIKL
B28: Q9UKT9 (peptide)
chain: FCCDICGAAFTQKGNLLRHIKL
B29: Q9UKT9 (peptide)
chain: FLCNQCGRVFTQKGNLLRHIKL
B30: Q9UKT9 (peptide)
chain: FQCNVCGANFTQKGNLLRHIKL
B31: Q9UKT9 (peptide)
chain: FYCNQCGHTFTQKGNLLRHIKL
B32: Q9UKT9 (peptide)
chain: FRCEICGAIFTQKGNLLRHIKL
B33: Q9UKT9 (peptide)
chain: FGCPICGAKFTQKGNLLRHIKL
B34: Q9UKT9 (peptide)
chain: FDCPICGHKFTQKGNLLRHIKL
B35: Q9UKT9 (peptide)
chain: FLCEQCGAEFTQKGNLLRHIKL
B36: Q9UKT9 (peptide)
chain: FWCPICGHAFTQKGNLLRHIKL
B37: Q9UKT9 (peptide)
chain: FFCDICGAQFTQKGNLLRHIKL
B38: Q9UKT9 (peptide)
chain: FFCNVCGAAFTQKGNLLRHIKL
B39: Q9UKT9 (peptide)
chain: FGCDQCGARFTQKGNLLRHIKL
B40: Q9UKT9 (peptide)
chain: FWCEICGASFTQKGNLLRHIKL
B41: Q9UKT9 (peptide)
chain: FYCEICGAQFTQKGNLLRHIKL
B42: Q9UKT9 (peptide)
chain: FLCPQCGATFTQKGNLLRHIKL
B43: Q9UKT9 (peptide)
chain: FGCPICGAYFTQKGNLLRHIKL
B44: Q9UKT9 (peptide)
chain: FTCNICGANFTQKGNLLRHIKL
B45: Q9UKT9 (peptide)
chain: FVCPICGAKFTQKGNLLRHIKL
B46: Q9UKT9 (peptide)
chain: FRCEICGRYFTQKGNLLRHIKL
B47: Q9UKT9 (peptide)
chain: FSCEICGHKFTQKGNLLRHIKL
B48: Q9UKT9 (peptide)
chain: FFCDQCGALFTQKGNLLRHIKL
B49: Q9UKT9 (peptide)
chain: FWCPVCGATFTQKGNLLRHIKL
B50: Q9UKT9 (peptide)
chain: FVCPQCGAFFTQKGNLLRHIKL

The other results are listed elsewhere or left out.
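Note: jurkat cells carrying a lentiviral library of mutant zinc finger degrons fused to EGFP plus mCherry, mCherry+ cells FACS sorted, degron abundance counted by next-generation sequencing.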

This assay has as its target no compound (DMSO). The assay can be described thus: log2 fold change of degron read counts, EGFP-low vs EGFP+ sorted cells; higher = lower degron-EGFP level without compound (poor expression or instability). Conditions: compound: DMSO control; 18 h.
On to B1, for which the “log2 fold change of degron read counts” value is -0.089.

B2: the “log2 fold change of degron read counts” value was -1.16.

Consider B3, for which the “log2 fold change of degron read counts” value is -0.215.

Take B4: the “log2 fold change of degron read counts” value was -1.75.

On to B5, for which the “log2 fold change of degron read counts” value is -2.17.

With B6, the “log2 fold change of degron read counts” value was -1.05.

With B7, the “log2 fold change of degron read counts” value is -0.787.

Regarding B8, the “log2 fold change of degron read counts” value stood at 0.357.

For B9, the “log2 fold change of degron read counts” value was -0.926.

As to B10, the “log2 fold change of degron read counts” value was 0.00964.

In the case of B11, the “log2 fold change of degron read counts” value is -0.575.

For the sequence B12, the “log2 fold change of degron read counts” value came to 1.97.

On to B13, for which the “log2 fold change of degron read counts” value was -0.153.

Consider B14, for which the “log2 fold change of degron read counts” value was found to be 0.374.

As to B15, the “log2 fold change of degron read counts” value came out at 0.0843.

In the case of B16, the “log2 fold change of degron read counts” value was determined as 2.01.

Take B17: the “log2 fold change of degron read counts” value was -1.16.

In the case of B18, the “log2 fold change of degron read counts” value was -0.453.

B19: the “log2 fold change of degron read counts” value is -0.436.

B20: the “log2 fold change of degron read counts” value was -1.41.

For the sequence B21, the “log2 fold change of degron read counts” value is 1.1.

With B22, the “log2 fold change of degron read counts” value is -0.522.

For B23, the “log2 fold change of degron read counts” value was 0.184.

With B24, the “log2 fold change of degron read counts” value stood at 0.619.

As to B25, the “log2 fold change of degron read counts” value is -1.94.

In the case of B26, the “log2 fold change of degron read counts” value stood at 0.0284.

Take B27: the “log2 fold change of degron read counts” value is -1.04.

Consider B28, for which the “log2 fold change of degron read counts” value is -1.75.

With B29, the “log2 fold change of degron read counts” value amounted to 0.197.

B30: the “log2 fold change of degron read counts” value is -1.29.

B31: the “log2 fold change of degron read counts” value came to 0.0274.

As to B32, the “log2 fold change of degron read counts” value is -0.152.

In the case of B33, the “log2 fold change of degron read counts” value was -0.734.

Consider B34, for which the “log2 fold change of degron read counts” value was -1.63.

In the case of B35, the “log2 fold change of degron read counts” value was -2.9.

Consider B36, for which the “log2 fold change of degron read counts” value was found to be 1.47.

As to B37, the “log2 fold change of degron read counts” value turned out to be 0.175.

Regarding B38, the “log2 fold change of degron read counts” value is -0.38.

As to B39, the “log2 fold change of degron read counts” value is -2.26.

With B40, the “log2 fold change of degron read counts” value was -0.679.

As for B41, the “log2 fold change of degron read counts” value is -1.63.

For the sequence B42, the “log2 fold change of degron read counts” value is -2.16.

In the case of B43, the “log2 fold change of degron read counts” value came to 0.464.

Consider B44, for which the “log2 fold change of degron read counts” value was -0.689.

Regarding B45, the “log2 fold change of degron read counts” value was -0.174.

As for B46, the “log2 fold change of degron read counts” value was -0.416.

Take B47: the “log2 fold change of degron read counts” value is -0.786.

In the case of B48, the “log2 fold change of degron read counts” value is -0.199.

Regarding B49, the “log2 fold change of degron read counts” value came out at 0.873.

B50: the “log2 fold change of degron read counts” value amounted to 0.521.

The values above are taken from the supplement of paper PMC12645437, “Orthogonal IMiD-Degron Pairs Induce Selective Protein Degradation in Cells” (ACS Chemical Biology, 2025).
